According to PubChem BioAssay AID588591 (National Center for Advancing Translational Sciences (NCATS), 2011):
About 4,700 (1.2%) of roughly 390,000 compounds were called active. Not shown: some 4% with an inconclusive outcome. The call rests on the fitted dose curve; in most records, active means well fitted inhibition curve with a large enough effect; inconclusive means small, poorly fitted or top-dose-only effect, or another doubt; inactive means no such curve, though single readings can be large or run the other way. The entries are a selection whose mix differs from that of the whole data set. A structure can be active in one record and inactive in another.

Target: DNA polymerase eta (Homo sapiens) (UniProt Q9Y253)
Assay: qHTS for Inhibitors of Polymerase Eta
Conditions: recombinant Pol eta, fluorescent DNA replication assay; series mostly up to 114 µM; activity change, negative = inhibition: at the top concentration
Summary of the method: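 Pol eta at 10 nM preincubated with compounds 15 min at room temperature; reaction started with fluorescent substrate (50 nM final) and read kinetically at 0 and 10 min.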
On the % scale 0 is the no-effect control and ±100 the full control effect; potency means the concentration at half of the fitted maximal effect.

Chain of UniProt Q9Y253 (Q9Y253 whole entry, looked up): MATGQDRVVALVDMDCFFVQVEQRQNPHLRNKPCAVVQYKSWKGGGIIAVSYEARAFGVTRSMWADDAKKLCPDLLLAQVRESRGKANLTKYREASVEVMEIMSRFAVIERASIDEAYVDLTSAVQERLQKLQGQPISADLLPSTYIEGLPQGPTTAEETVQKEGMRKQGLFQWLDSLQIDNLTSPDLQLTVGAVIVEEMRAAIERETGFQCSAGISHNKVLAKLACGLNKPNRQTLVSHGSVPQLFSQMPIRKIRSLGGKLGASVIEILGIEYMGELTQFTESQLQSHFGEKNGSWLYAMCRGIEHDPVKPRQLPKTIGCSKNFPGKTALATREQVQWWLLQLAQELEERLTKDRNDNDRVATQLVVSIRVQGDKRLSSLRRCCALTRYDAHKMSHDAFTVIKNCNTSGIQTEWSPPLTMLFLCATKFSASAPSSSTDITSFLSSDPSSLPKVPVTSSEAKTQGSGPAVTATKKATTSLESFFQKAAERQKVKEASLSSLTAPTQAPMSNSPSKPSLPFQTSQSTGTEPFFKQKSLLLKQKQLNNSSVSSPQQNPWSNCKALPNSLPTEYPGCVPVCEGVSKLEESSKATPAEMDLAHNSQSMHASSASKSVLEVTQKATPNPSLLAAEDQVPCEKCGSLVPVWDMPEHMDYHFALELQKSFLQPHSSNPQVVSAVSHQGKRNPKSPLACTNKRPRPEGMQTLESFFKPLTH

Potency, active:
CCOC(=O)c1c(NC(=O)COC(=O)c2ccc(NC(=O)CC#N)cc2)sc(C(=O)NC)c1C 10 µM, O=C(O)c1ccc(-n2ncc3c2/C(=C/c2cccc([N+](=O)[O-])c2)CC3)cc1 50.1 µM, O=C(O)CCCN1C(=O)/C(=C\c2ccco2)SC1=S 20 µM, COc1ccc2oc(C(=O)Nc3ccc(N4CCOCC4)cc3)c(C)c2c1 12.6 µM, Cc1nnc(SCC(=O)Nc2sccc2C#N)s1 25.1 µM, CCC(C)N1C(=O)/C(=C/c2c(NCCCOC(C)C)nc3c(C)cccn3c2=O)SC1=S (configuration not stated) 22.4 µM, O=C(Nc1ccc(S(=O)(=O)O)cc1)c1ccc2c(c1)S(=O)(=O)c1ccccc1C2=O 28.2 µM, NC(=O)C1CCN(C2=C(Cl)C(=O)c3ccccc3C2=O)CC1 6.31 µM, O=C(NCc1ccco1)C1CCCN(S(=O)(=O)c2ccc(-n3cnnn3)cc2)C1 (configuration not stated) 20 µM, O=C(NNc1cc(N2CCOCC2)nc(N2CCOCC2)n1)c1ccc([N+](=O)[O-])cc1 89.1 µM, CCN(CC)c1ccc(/C=C2/C(=O)c3ccc(C(=O)O)cc3C2=O)cc1 3.55 µM, Cc1ccc(/C=C/C(=O)Nc2ccc([N+](=O)[O-])c(NC(=O)/C=C/c3ccc(C)o3)c2)o1 8.91 µM, O=c1c(C(c2ccc(Cl)cc2)c2c(O)nc3n(c2=O)CCS3)c(O)nc2n1CCS2 89.1 µM, CCOc1cc(/C=C(/C#N)c2nc3ccccc3[nH]2)ccc1OCc1ccc(C(=O)O)o1 7.94 µM, NS(=O)(=O)c1ccc(CCNc2nc3c(-c4cccc(F)c4)nnn3c3ccc(Cl)cc23)cc1 89.1 µM, COc1ccc(C(=O)CC(c2ccccc2)C2C(=O)CCCC2=O)cc1 (configuration not stated) 79.4 µM, CC(/C=C/c1ccco1)=N\NC(=O)c1cc(C)[nH]n1 79.4 µM, O=C(Nc1nnc(S(=O)(=O)N2CCCc3ccccc32)s1)c1ccccc1Br 79.4 µM, CCC1CCCCN1S(=O)(=O)c1ccc2[nH]c(=O)ccc2c1 (configuration not stated) 50.1 µM, Cc1cc(/C=N/NC(=O)C(O)(c2ccccc2)c2ccccc2)c(C)n1-c1ccc(C(=O)O)cc1 79.4 µM, Cc1ccc2c(c1)c(=O)c1ccccc1n2CCCC(=O)Nc1ccc(Cl)cc1C 89.1 µM, CC(=O)c1ccc(S(=O)(=O)Nc2ccc(-c3ccc4nncn4n3)cc2)cc1 20 µM, O=C(NCc1ccco1)c1cccc2c1C(=O)c1ccc(/C=C/c3ccccc3)cc1S2(=O)=O 14.1 µM, N#CC(C#N)=C1C=C2C=C(N3CCCCC3)CCC2CC1 (configuration not stated) 79.4 µM, CC(C)(C)c1ccc(-c2nc(SCC(=O)Nc3ccc(Cl)cc3)[nH]c(=O)c2C#N)cc1 28.2 µM, O=C(CSc1nnc(-c2ccco2)c(-c2ccco2)n1)c1ccccc1 35.5 µM, CN(C)C(CNC(=O)c1ccc(OCc2cn3ccccc3n2)cc1)c1ccco1 (configuration not stated) 39.8 µM, O=C(C1=C(O)C(=O)N(c2ncccn2)C1c1cccs1)c1ccco1 (configuration not stated) 79.4 µM

Potency, inactive:
Cc1ccc(N(CC2=NCCN2)c2cccc(O)c2)cc1

Activity change, negative = inhibition, inactive:
O=C(NC1CC1)C1=C[C@H](c2ccc(Br)cc2)C[C@H](OCc2ccc(CO)cc2)O1 -16.1%, N#C/C(=C/c1ccc(OC(=O)c2ccc(Br)s2)cc1)c1nc2ccccc2[nH]1 -8.24%, COc1ccc(C)cc1NC(=O)c1cc(S(=O)(=O)N2CCOCC2)cn1C -4.44%, CC(=O)C1=C(O)C(=O)N(c2ccc(S(N)(=O)=O)cc2)C1c1cccc([N+](=O)[O-])c1 (configuration not stated) 33.6%, Cn1c(SCC(=O)N/N=C/C=C\c2ccccc2[N+](=O)[O-])nc2ccccc21 6.62%, C=CCC[C@H](Cc1ccc(F)cc1)C(=O)OC[C@H](Cc1c[nH]c2ccccc12)NC(=O)[C@@H](CC=C)CC(=O)N(CCO)Cc1ccccc1 -20.2%, CC1(CO)COC(c2ccccc2)=N1 (configuration not stated) 34.9%, Brc1ccc2[nH]c3nc(SCCN4CCOCC4)nnc3c2c1 -9.91%, O=S(=O)(Nc1cccc(-c2ccc(N3CCCCCC3)nn2)c1)c1ccc(F)cc1 -18.7%, Cc1nc2ccccc2c(=O)n1NC(=O)c1cc(Br)ccc1Cl 36.4%, C=CCC[C@H](Cc1ccc(F)cc1)C(=O)OC[C@@H](C)NC(=O)[C@H](CC=C)CC(=O)N(CCO)Cc1ccccc1 -23.6%, C[C@H](NC(=O)c1ncn(C)c1C(=O)N[C@@H](C)c1ccccc1)c1ccccc1 -14.9%, O=C(Nc1ccc(NC(=O)C2CC2)nc1)c1cccnc1 -9.71%, CCCCCCCCCCCCCCC[C@@H](O)[C@@H](N)CO -0.148%, N/C(=N\OC(=O)Nc1cccc(C(F)(F)F)c1)c1ccno1 23.4%, CCOc1ccc(CCNC(=O)CCCn2c(=O)c3cccn3c3cccnc32)cc1 15.6%, CN(C)c1ccc(P(=O)(OC2CCCCC2)C(O)c2ccccn2)cc1 (configuration not stated) 31.1%, Cc1ccc(-c2csc(C(C#N)=C(O)CN3CCN(C(=O)c4ccco4)CC3)n2)cc1 9.87%, Cc1ccc2c(n1)sc1c(-c3ccccc3)c(C#N)c(N)nc12 4.54%, O=C1c2c(O)cc(O)cc2O[C@H](c2ccc(O)c(O)c2)[C@H]1O 4.11%, CCOC(=O)/C(C#N)=C\c1c(OCC)n(CC)c2ccccc12 -22.9%, Oc1ccc(NCc2ccccc2OCc2ccccc2F)cc1 -23.5%, CCOc1ccc(CNC(=O)c2cc3c(=O)n(Cc4cccs4)ccc3nc2C)cc1 15.9%, COc1ccc(CCC(C)Nc2ccccc2F)cc1 (configuration not stated) -0.755%, NNC(=O)[C@@H]1C[C@@H]1c1ccccc1 -19.1%, Cn1cc(C2=C(c3ccc(Cl)cc3Cl)C(=O)NC2=O)c2ccccc21 -6.25% [at 57.1 µM], O=C(CSc1ccc2ccccc2n1)Nc1nsc(-c2ccc(Cl)cc2)n1 -15.5%, Cc1ccc2sc(=O)[nH]c2c1 21%, O=C(c1ccc2c(c1)OCO2)N(CC1CCCO1)C1(C(=O)NC2CCCC2)CCCCC1 (configuration not stated) -12.6%, O=C(OCc1cn([C@H]2CN(Cc3cccs3)[C@@H](c3ccccc3)C[C@@H]2O)nn1)c1ccccc1 -14.5%, Cc1ccc(NC(CC(=O)c2ccccc2)C(=O)O)cc1Cl (configuration not stated) 30.6%, NC(=O)c1cc[n+](CC2=C(C(=O)O)N3C(=O)[C@@H](NC(=O)C(c4ccccc4)S(=O)(=O)[O-])[C@H]3SC2)cc1 (some centres not stated) -99.6%, COc1ccc(NC(=O)Cn2nc(C(F)(F)F)c3c2CCCC3)cc1OC -26.9%, CCCCCC(=O)N1C[C@@H](n2cc(-c3ccc(F)cc3)nn2)[C@H](O)C[C@@H]1c1ccc(C)cc1 -20.1%, CCCc1nc(SCC(=O)NNC(=O)c2ccc(OC)cc2)c2ccccc2n1 34.6%, COc1ccc(C(=O)C2CCCN(C(=O)Cn3nc(C)cc3C)C2)cc1F (configuration not stated) 38.7%, CC1=C(C)C(=O)C(CCCCC#CCCCC#CCO)=C(C)C1=O -9.12%, C=CCC[C@@H](Cc1ccc(F)cc1)C(=O)OC[C@H](C)NC(=O)[C@H](CC=C)CC(=O)N(CCO)Cc1ccccc1 -26.8%, COc1ccc(S(=O)(=O)Nc2ccc(O)c(Sc3nc4ccccc4s3)c2)cc1 -7.34%, O=C(C1=C[C@H](C2CCCCC2)C[C@H](OCCCCO)O1)N1CCN(Cc2ccc3c(c2)OCO3)CC1 -17.9%, N/C(=N\OC(=O)c1ccc(Cl)cc1Cl)c1ccncc1 18%, Cc1ccc(NC(=O)c2nc[nH]c2C(=O)N[C@@H](C)c2ccccc2)cc1 -12.5%, COC(=O)[C@H]1[C@H]2C[C@@H]3c4[nH]c5cc(OC)ccc5c4CCN3C[C@H]2C[C@@H](OC(=O)c2cc(OC)c(OC)c(OC)c2)[C@@H]1OC -8.91%, O=C(NCCC1=CCCCC1)C1CCC(CNS(=O)(=O)c2ccccc2)CC1 (configuration not stated) 2.5%, Nc1nc(Nc2ccc(Cl)cc2)c(NC=O)c(=O)[nH]1 31.1%, CCCCCCN(CCCCCC)C(=O)Cc1c(-c2ccc(F)cc2)[nH]c2ccccc12 -19.8%, C=C[C@]1(C)C=C2CC[C@H]3[C@@](C)(CCC[C@@]3(C)C(=O)O)[C@@H]2CC1 4.64%, CC1CC(C)CN(C(=O)Cn2cc(C=O)c3ccccc32)C1 (configuration not stated) 38.6%, CCOC(=O)c1sc2ncn(/N=C/N(C)C)c(=O)c2c1C 15.5%, Cc1cc(C)cc(NS(=O)(=O)c2ccc3[nH]cc(C(=O)NCc4ccco4)c(=O)c3c2)c1 -5.58%, CSc1ccc(CCNC(=O)c2ccc3c(c2)c(C)c(C)n3Cc2ccc(F)cc2)cc1 18.3%, CCOc1cc(/C=C2/COc3ccccc3C2=O)ccc1OCC(=O)N(C)C 8.37%, C=CCC[C@@H](Cc1ccc(F)cc1)C(=O)OC[C@H](C)NC(=O)[C@@H](CC=C)CC(=O)N(CCO)Cc1ccccc1 -7.99%, CCC(=O)N1c2ccc(S(=O)(=O)N3CCN(c4ccccc4Cl)CC3)cc2CC1C (configuration not stated) -11%, CCOC(=O)c1c(S(=O)(=O)NCC(=O)Nc2cc(C)ccc2OC)c(C)n(C)c1C 1.33%, Cn1c2ccccc2c2nnc(N/N=C/c3ccc(O)cc3)nc21 35.9%, Cc1c(-c2nc(-c3ccncc3)no2)cccc1[N+](=O)[O-] 36%, C[C@H](NC(=O)[C@@H]1Cc2ccccc2CN1)C(=O)NC1CCCCC1 -11.7%, C=CC[C@@H](CC(=O)N(CCO)Cc1ccccc1)C(=O)N[C@@H](C)COC(=O)[C@@H](CC=C)Cc1ccc(F)cc1 -21.8%, CCCCC(CCC(=O)Nc1ccn(-c2ccccc2)n1)C(=O)O (configuration not stated) 38%, Cc1ccc2occ(C3NC(C(=O)O)CS3)c(=O)c2c1 (configuration not stated) -19.4%, CC1=C(C(N)=O)C(c2ccco2)C(C(N)=O)=C(C)N1 -2.31%, CN(/C=C/C(=C\C=[N+](C)c1ccccc1)OCCCS(=O)(=O)[O-])c1ccccc1 -4.07%
